Results reported in PubChem BioAssay AID463173 (ICCB-Longwood Screening Facility, Harvard Medical School, 2010).
About 1,700 (3.3%) of roughly 52,000 compounds were called active. Rule as the data show it: active = survival mostly below about 52% (no sharp cut-off); inactive = mostly above about 56%. This is one part of the list.

What follows are compounds tested on Wild type (assay: growth inhibition of S. aureus wild type versus tarO mutant, primary screen, teichoic acid synthesis inhibitors, RN4220, OD600 (AID 463173)). Conditions: S. aureus RN4220 wild type/DeltatarO growth, OD600, 18 h, stronger effect = lower value, screened at 18.75 µg/mL (by protocol).
For `COC(=O)C1=C(C)OC(N)=C(C#N)C1c1c(C)nn(-c2ccccc2)c1Cl` (stereo unspecified), the survival was inactive: 104%. `COc1ccc(C(=O)NCc2nnc(SCC(=O)Nc3ccccc3)n2-c2ccc(F)cc2)cc1` was tested, and the survival was inactive: 78%. With `COCC(=O)N(C)c1nnc(-c2ccc(OC)cc2)s1` the survival was inactive: 99%. With `CCOc1ccc(CCNC(=O)CN2C(=O)C(CC)Oc3ccccc32)cc1OCC` (stereo unspecified) the survival was inactive: 67%. In the case of `CCn1cc(C(=O)Nc2ccccc2)c(=O)c2ccc(C)nc21`, the survival is reported as inactive: 111%. In the case of `Cn1c(=O)oc2cc(S(=O)(=O)CCC(=O)N3CCN(c4ccccc4)CC3)ccc21`, the survival is reported as inactive: 70%. `COc1ccccc1-c1cc(C(=O)Nc2sc3c(c2C#N)CCCC3)no1` was tested, and the survival was inactive: 140%. For `COc1ccc(NC(=O)c2c(NCc3ccc(C)o3)sc3c2CCC(C)C3)c(OC)c1` (stereo unspecified), the survival was inactive: 84%. `COc1ccc(OC)c(NC(=O)CSc2ccnc(=O)[nH]2)c1` was tested, and the survival was inactive: 80%. `COc1ccccc1N1CCN(S(=O)(=O)c2c(C)sc3ncn(CC(=O)Nc4cccc(Cl)c4)c(=O)c23)CC1` was tested, and the survival was inactive: 83%. In the case of `COc1ccc(C2CC(c3c(O)n(C4CCCCC4)c(=O)[nH]c3=O)=Nc3ccccc3S2)cc1` (stereo unspecified), the survival is reported as inactive: 83%. With `Cc1ccc2c(c1)NC(=O)C(CC(=O)Nc1cc(Cl)ccc1C)O2` (stereo unspecified) the survival was inactive: 77%. For `COC(=O)c1c(-c2ccc(Cl)cc2)noc1N1CCN(c2ccc(OC)cc2)CC1`, the survival was inactive: 69%. With `CCc1nn2c(=O)cc(COC(=O)CNC(=O)c3ccccc3)nc2s1` the survival was inactive: 124%. In the case of `COc1cc(OC)c(Nc2cc(C)nc3ncnn23)cc1Cl`, the survival is reported as inactive: 87%. For `Cn1c(SCC(=O)N2c3ccccc3Sc3ccccc32)nnc1-c1ccco1`, the survival was inactive: 102%. For `O=C(Nc1ccc(Br)cc1)C1CCN(c2cnccn2)CC1`, the survival was inactive: 93%. With `O=C(O)c1ccc(CSc2n[nH]c(-c3ccco3)n2)cc1` the survival was inactive: 109%. With `CCOc1ccc(C(=O)Nc2cccc(NC(=O)c3ccco3)c2)cc1Cl` the survival was inactive: 71%. `COc1ccccc1CNC(=O)c1ccc(N2CCCC2)c(NC(=O)NCc2ccccc2)c1` was tested, and the survival was inactive: 70%. For `CCN(CC)S(=O)(=O)c1nnc(NC(=O)COc2ccccc2Cl)s1`, the survival was inactive: 86%. With `CCC(C(=O)N1CCN(c2ccccc2)CC1)n1nc(C)n2c(cc3sccc32)c1=O` (stereo unspecified) the survival was inactive: 94%. For `O=C(COc1ccccc1F)OCc1cc(=O)n2nc(-c3cccs3)sc2n1`, the survival was inactive: 123%. With `Cc1ccccc1CNC(=O)C1CCN(c2nn3cc(-c4ccc(F)cc4)nc3s2)CC1` the survival was inactive: 66%. For `CCC(CC)c1nn2c(=O)cc(COc3ccc(NC(=O)c4ccccc4Cl)cc3)nc2s1`, the survival was inactive: 84%. For `NC(=O)c1cc(S(=O)(=O)N2CCN(c3ccc(F)cc3)CC2)cs1`, the survival was inactive: 78%. For `Cc1cccc(CNS(=O)(=O)c2ccc3[nH]c(=O)ccc3c2)c1`, the survival was inactive: 124%. `CC1CCCCN1CCCNC(=O)Cn1ncc2c([nH]c3ccccc32)c1=O` (stereo unspecified) was tested, and the survival was inactive: 130%. `COc1ccc(Cn2c(=O)[nH]c3cc(C(=O)N4CCN(c5cc(C)ccc5C)CC4)ccc3c2=O)cc1` was tested, and the survival was inactive: 66%. `COc1ccc(C)cc1NC(=O)c1cc(S(=O)(=O)NC2CCCCCC2)ccc1F` was tested, and the survival was inactive: 74%. `COc1ccc(-c2cnnn2-c2ccc(NC(=O)c3ccc(S(=O)(=O)N(C)C)cc3)cc2)cc1` was tested, and the survival was inactive: 71%. With `COc1ccc(-c2cnnn2-c2ccc(NC(=O)c3c(F)cccc3F)cc2)cc1` the survival was inactive: 120%. `Cc1nc(N)sc1C(N)=O` was tested, and the survival was inactive: 115%. For `CC(C)Cn1c(=O)c2ccccc2n2c(CCC(=O)Nc3cccc(Cl)c3)nnc12`, the survival was inactive: 89%. With `CCOC(=O)c1cnc2cc(-c3ccc(Cl)cc3)nn2c1-c1ccccc1` the survival was inactive: 92%. For `CC(=O)c1cc(-c2ccccc2)n(CC(=O)NC2CCCCC2)c1C`, the survival was inactive: 77%. In the case of `Cc1ccc(NC(=O)Cn2c(=O)n(CCCCCC(=O)NCc3ccc(F)cc3)c(=O)c3sccc32)cc1C`, the survival is reported as inactive: 84%. For `CCCOc1ccc(-c2nn(-c3ccccc3)cc2C2NC(=O)NC(C)=C2C(=O)OC(C)C)cc1` (stereo unspecified), the survival was inactive: 66%. `O=C1Nc2c(c(=O)[nH]c(=O)n2-c2ccccc2)C1(NS(=O)(=O)c1ccc(Cl)cc1)C(F)(F)F` (stereo unspecified) was tested, and the survival was inactive: 130%. For `CCOc1ccc(Cn2nnc3c(=O)[nH]c(C4CCN(C(=O)c5ccccc5)CC4)nc32)cc1`, the survival was active: 3%. In the case of `COc1cc(-c2nnc(SCC(=O)NCc3ccccc3Cl)o2)cc(OC)c1OC`, the survival is reported as inactive: 104%. For `O=C(Cc1ccc(F)cc1)NC1CC(=O)N(c2ccccc2)C1` (stereo unspecified), the survival was inactive: 72%. In the case of `Cc1cc(C)cc(-n2nnc(-c3nc(-c4ccc5c(c4)OCO5)no3)c2C)c1`, the survival is reported as inactive: 73%. `Cc1ccc(C(=O)NCCn2c(C)cc3ccccc32)cc1C` was tested, and the survival was inactive: 73%. For `Cc1ccc(S(=O)(=O)C(CNC(=O)C(=O)NCc2ccc(Cl)cc2)c2cccs2)cc1` (stereo unspecified), the survival was inactive: 74%. `CC(=O)c1ccc(NC(=O)c2cn3c4c(ccc(Cl)c4c2=O)OC(C)C3)cc1` (stereo unspecified) was tested, and the survival was inactive: 91%. `CCC(=O)N1c2ccc(S(=O)(=O)N3CCN(c4ccccc4)CC3)cc2CC1C` (stereo unspecified) was tested, and the survival was inactive: 84%. `COc1cc2c(=O)n(CCC(=O)NCC3CCCO3)c(=O)n(CC(=O)Nc3ccc(C)cc3)c2cc1OC` (stereo unspecified) was tested, and the survival was inactive: 92%. With `Cn1cnc2sc3c(c2c1=O)CCCC3` the survival was inactive: 95%. For `Cc1c(NC(=O)c2ccc(OC(C)C)cc2)cccc1-c1nc2ncccc2o1`, the survival was inactive: 83%. `Cc1ccc(S(=O)(=O)c2cn(CC(=O)Nc3ccc(C)c(Cl)c3)c3ccc(C)cc3c2=O)cc1` was tested, and the survival was inactive: 85%. With `CC(Oc1ccc(F)cc1)C(=O)NCC1(N(C)C)CCCCC1` (stereo unspecified) the survival was inactive: 87%. For `Cc1ccc(CNC(=O)C2CCCN(S(=O)(=O)c3ccc4c(c3)oc(=O)n4C)C2)cc1` (stereo unspecified), the survival was inactive: 106%. With `O=C1CN(C(=O)c2ccc(S(=O)(=O)N3CCCCC3)cc2)C(c2ccc(F)cc2)c2cc(F)ccc2N1` (stereo unspecified) the survival was inactive: 83%. In the case of `COc1cccc(C(=O)NCCSc2c(-c3ccc(F)cc3)[nH]c3ccccc23)c1OC`, the survival is reported as inactive: 65%. In the case of `Cc1cc(F)c(F)c(C(=O)N2CCCCCC2)c1Cl`, the survival is reported as inactive: 124%.
